# Measurements published in the RNAGym collection of RNA variant scans (doi:10.1093/nar/gkz1192).
# Read counts are not given, so values of variants with three or more changes are uncertain.
# B1: CPEB3 Ribozyme (parent)
# chain: UAACAGGGGGCCACAGCAGAAGCGUUCACGUCGCAGCCCCUGUCAGAUUCUGGUGAAUCUGCGAAUUCUGCUGUAUAUCUC
# Variants of: B1
# Assay: self-cleavage, relative activity (ratio to wild type); higher = more cleavage; in vitro, sequencing
# Method in brief: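 For each CPEB3 ribozyme variant, relative activity is its cleaved/total read fraction divided by the unmutated ribozyme's. Barcoded error-prone PCR libraries were transcribed by T7 RNA polymerase (5 hours, 37°C) and held in DNase I for 15 min before an EDTA stop, with cleavage occurring throughout. Template-switching reverse transcription and Illumina sequencing were used to read the RNAs. A 5-read minimum applied, and results are the mean of three batches.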
row,Variant,self-cleavage
1,UAACAGGGGGCCACAGCAGGAGCGUCCACGUCGCAGCCCUUGCCGGAUUCUGGUGAAUCUGCGAAUUCUGCUGUAACUCUC,0.07
2,UAACAGGGGGCCACAGCAGGAGCGAUCACGUCGUAGCCCCUGUCAGAUUCUGGCGAAUCUGCGAAUUCUGCUGUAUAUCUC,0.04
3,UAACAGGGGGCCACAGCAGGAGCGUCCACGUCUCAGCCCCCGUCAGAUUCUGGUGAAUCUGCGAAUUCUGCUGUAUGUCUC,0.06
4,UAACAGGGGGCCACAGCAGGAGCGUACGCGUCGCAGCCCCCGUCAGAUUCUGGUGAAUCUGCGAAUUCUGCUGUAUAUCUC,0.33
5,UAACAGGGGGCCACAGCAGGAGCGUCCGCGUCGCAGCCCCAGCCAGAUUCUGGUGAAUCUGCGAACUCUGCUGUAUACCUC,0.14
6,UAACAGGGGGCCACAGCAGGAGCGUUCACGAUGCAGCCCCUGUCAGAUUCUGGUGAAUCCGCGGAUUCUGCUGUAUAUCUC,0.27
7,UAACAGGGGGCCACAGCAGGAGCGCUCACGUCGCUGCCCCCGUCAGAUUCUGGUGAAUCUGCGAAUUCUGCUGUAUUUCUC,0.35
8,UAACAGGGGGCCACAGCAGGAGCGCUCACGUCGCAGCCCCUGUGAGAUUCUGGUGAAUCUGCGGAUUCUGCUGCAUACCUC,0
9,UAACAGGGGGCCACAGCAGGAGCGUCCACGUCGCAGCCCCUGUCAGAUUCUGGUGAAUCUGCGAAUUCUGCUGUAUACCCA,0.5
10,UAACAGGGGGCCACAGCAGGAGCGCUCAUGCCGCAGCCCCUGUCAGAUUCUGGUGAAUCUGCAAAUUCUGCUGUAUAUCUC,0.42
11,UAACAGGGGGCCACAGCAGGAGCGCUCACGUCGCAGCCCCCGUCAGAUUCAGGUGAAUCUGCAAAUUCUGCUGCAUAUCUC,0.1
12,UAACAGGGGGCCACAGCAGGAGCGAUCACGUCGCAGCCCCUGUCAGGUUCUGGUGAAUCUGCGAAUUCUGCUGUUUAUCUC,0.08
13,UAACAGGGGGCCACAGCAGGAGCGCUCACGUGGCAGCCCCUGUCGGAUUCUGGUGAAUCUGCGUAUUCUGCUGUAUACCUC,0.08
14,UAACAGGGGGCCACAGCAGGAGCGCUCACGUCGCAGCCCCUGUCAGAUUCUGGUGAAUCUGCGGACUCUGCUGUAUAUCUC,0.26
15,UAACAGGGGGCCACAGCAGGAGCGGUCACGUCGCAGCCCCUGUCAGAUUCUGGUGAAUCUGCGAAUUCAGCUGUAUAUCUC,0.07
16,UAACAGGGGGCCACAGCAGGAGCGUUCACGCCGCAGCCCCUGUAAGAUUCAGGUGAAUCUGCGAAUUCUGCUGUAUAUCCC,0.09
17,UAACAGGGGGCCACAGCAGGAGCGUACACGUCGCAGCCCCUGUCCGAUUCUGGUGAACCUGCGAAUUCUGUUGUAUAUCUC,0.03
18,UAACAGGGGGCCACAGCAGGAGCGACCACGUCGCAGCCCCUGUCAGAUUCUGGCGAACCUGCGAAUUCUGCUGUAUAUCCC,0.17
19,UAACAGGGGGCCACAGCAGGAGCGUUCACGUCGCACCCCCUGCCAGACUCUGGUGAAUCUGCGUAUCCUGCUGUAUAUCUC,0.07
20,UAACAGGGGGCCACAGCAGGAGCGUCCACGUCGCAGCCCCUGUCUGGUUCUCGUGAGUCUGCGAAUUCUGCUGUAUGUCUC,0.09
21,UAACAGGGGGCCACAGCAGGAGCGUUCACGCCGCAGCCCCUGUCAGAUUCAGGUGAAUCUGCGAAUUCUGCUGUAUAUUCC,0.65
22,UAACAGGGGGCCACAGCAGGAGCGUUCACGACGCAGCCCCUGUCAGAUUCUGGUGAAUCUGCGAGUUCUGCUGUAUAUCUC,0.32
23,UAACAGGGGGCCACAGCAGGAGCGCUCACGUCGCAGCCCCUGUCAGAUUCUGGUGAAUCUACGAAUUCUGCCGUAUAUCUC,0.06

row,Variant,self-cleavage
1,UAACAGGGGGCCACAGCAGGAGCGUUCACGCCGCAGCCCCUGUCAGAUCCUGGUGAAACUGCGAAUUCUGCAGUAUAUCAC,0.06
2,UAACAGGGGGCCACAGCAGGAGCGCGCACGUCGCAGCCCCUGUCAGAUUCUGGUGAAUCUGCGAAUUCUGCUGUAUAUCUC,0
3,UAACAGGGGGCCACAGCAGGAGCGUCCACGUCGCAGCCCCUGUCAGUUUCAGGUGAAUCUGCGAAUUCUGCUGUAUAUCUC,0.08
4,UAACAGGGGGCCACAGCAGGAGCGUUCACGCCGCAGCCCCUGUCAGAUUCUGGUGAAUCUGCGGAUUCUGCUGUAUAUCUC,0.38
5,UAACAGGGGGCCACAGCAGGAGCGUCCACGUCGCAGCCCCUGUCAGAUUCUGGAGAGUCUGCGUAUUCUGCUGUAUAUCUC,0.15
6,UAACAGGGGGCCACAGCAGGAGCGUACACGUCGCAGCCCCUGUCGGAUUCCGGUGAACCUGCGAAUUCUGGUGUAUAUCUC,0.05
7,UAACAGGGGGCCACAGCAGGAGCGAUCACGUCGCAGCCCCAGUCAGAUUCUGGUGGAUCUGCGAAUUCUGCUGUAUAUCUC,0.09
8,UAACAGGGGGCCACAGCAGGAGCGUUCACGCCGCAGCCCCUGUCAGAUUCUGGUGAACCUGCGAAUUCUGCUGUAUAUCUC,0.22
9,UAACAGGGGGCCACAGCAGGAGCGCUCACGUCGCAGCCCCUGUCAGAUUCUGGUGAAUCUGCGAAUCCUGCUGUAUAUCUC,0.15
10,UAACAGGGGGCCACAGCAGGAGCGCUCACGUCGCAGCCCCUGUCAGAUUCUGGUGAAUCUGCGAGUUCUGCUGUAUACCUC,0.4
11,UAACAGGGGGCCACAGCAGGAGCGUCCACGUCGCAGCCCCUGUCAGAUCCUGGUGGAUCUGCGGAUUCUGCUGUAUAUCUC,0.21
12,UAACAGGGGGCCACAGCAGGAGCGAUCGCGUCGCAGCCCCUGUCAGAUUCUGGUGAAUCUGCGAAUUCAGCUGUAUACCUC,0.04
13,UAACAGGGGGCCACAGCAGGAGCGUCCACGUCGCAGCACCUGUCAGAUUCCGGUGAAUCUGCGAAUUCUGCUGUAUAUCUC,0.1
14,UAACAGGGGGCCACAGCAGGAGCGGUCACGUCGCAGCCCCUGUCAGAUUCUGGUGAAUCAGCGAAUUCUGCUGUAUAUCUC,0.24
15,UAACAGGGGGCCACAGCAGGAGCGCUCACGUCGCAGCCCCUGUCAGAUUCUGGUGAAUCCGCGAAUUCUGCUGUAUAUCUC,0.14
16,UAACAGGGGGCCACAGCAGGAGCGUUCACAUCGCAGCCCCUGUCAGAUUCUGGUGAAUCUGCUAAUUCUGCUGUAUACCUC,0.24
17,UAACAGGGGGCCACAGCAGGAGCGUCCACGUCUCAGCCCCUGUCAGAUUCUGGUGAAUCUGCGGAUUCUGCUGUAUAUCUC,0.19
18,UAACAGGGGGCCACAGCAGGAGCGUACACGUCGCAGCCCCUGUCAGAUACUGGUGAAUCUGCGAAUUCUGCUGUAUAUCUC,0.37
19,UAACAGGGGGCCACAGCAGGAGCGCUCACGUCGCAGCCCCUGCCAGAUACUGGUGAAUCUGCGAAUUCUGCUGUAUAUCUC,0.23
20,UAACAGGGGGCCACAGCAGGAGCGCUUACGUCGCAGCCCCUGUCAGAUUCUGGUGGAUCUGCGAAUUCUGCUGUAUAUCUC,0.38
21,UAACAGGGGGCCACAGCAGGAGCGUACACGUCGCAGCCCCUGUCAGAUUCUGUUGAAUCUGCGAAUCCUGCUGUAUAUCUC,0.86
22,UAACAGGGGGCCACAGCAGGAGCGUACGCGUCGCAGCCCCUGUCGGAUUCUGGUGAAUCUGCGAAUUCUGCCGUAUAUCUC,0.09
23,UAACAGGGGGCCACAGCAGGAGCGUUCACGUCACAGCCCCUGUCAGAUUCUGGUGAAUCCGCGAAUACCGCUGUAUAUCUC,0.06

row,Variant,self-cleavage
1,UAACAGGGGGCCACAGCAGGAGCGUCCACGUCGCAGCCCCUGUCAGACCCUGGUGAAUCUGCGAAUUCUGCUGUAUAUCUC,0.49
2,UAACAGGGGGCCACAGCAGGAGCGUUCACGCCGCAGCCCCUGACAGAUUCUGGCGAAUCUGCGAAUUCUGCUGUAUAUCUC,0.38
3,UAACAGGGGGCCACAGCAGGAGCGUACACGUCGCAGCCCCUGUCAGAUUCCGGUGAAUCUGCGAAUUCUGCUGUAUAUCAC,0.77
4,UAACAGGGGGCCACAGCAGGAGCGUUCACGACGCAGCCCCUGUCAGACUCUGGUGAAUCUGCGAAUCCUGCUGUAUAUCUC,0.12
5,UAACAGGGGGCCACAGCAGGAGCGUUCACAUCGCAGCCCCUGUCAGAUUCUGGUGAAUCUGCGAAUUCUGCUGUAUAUCAC,0.21
6,UAACAGGGGGCCACAGCAGGAGCGUACACGUCGCAGCCCCUGUCAGAUUCUGGUGAGUCUGCGAAUUCUGCUGUAUAUCUC,0.61
7,UAACAGGGGGCCACAGCAGGAGCGUCCACGUCGCAGCCCCUGUCAGGUUCUGGUGAAUCUGCGAACUCUGCUGUAUAUCUC,0.15
8,UAACAGGGGGCCACAGCAGGAGCGUUCACGCCGCAGCCCCUGUCAGAUUCUGGGGAAUCUGCGAAUUCUGCUGUAUAUCUC,0.4
9,UAACAGGGGGCCACAGCAGGAGCCUUCACGUCGCAGCCCCUGUCAGAUUCUGGUGAAUCUGCGAAUUCUGCUGUAUAUCCC,0.18
10,UAACAGGGGGCCACAGCAGGAGCGUCCACGUCGCAGCCCCUGUCAGAUUCUGGUGAAUCUGCCAUUUCUGAUGUAUAUCUC,0.03
11,UAACAGGGGGCCACAGCAGGAGCGUUCACGCCGCAGCCCCUGUCAGAUUCUGGUGAAUCCGCGAAUUCUGCUGUAUAUCUC,0.18
12,UAACAGGGGGCCACAGCAGGAGCGUUCACGCCGCAGCCCCUGUCAGAUUCUGGUGAAUCAGCGAAUUCUGCUGUAUAUCUC,0.14
13,UAACAGGGGGCCACAGCAGGAGCGAUCACGUCGCAGCCCCUGUCAGAUUCUGGUGAGUCUGCGAAUUCUGCUGUAUAUCUC,0.19
14,UAACAGGGGGCCACAGCAGGAGCGUCCACGUCGCAGCCCCAGUCAGAUUCUGGUGAAUCUGCGAACUCUGCUGUUUACCUC,0.18
15,UAACAGGGGGCCACAGCAGGAGCGUCCACGUCGCAGCCCCUGUCAGAUUCUGGUGAAUCUGCGAAUUCUGCUGCAUAUCUC,0.62
16,UAACAGGGGGCCACAGCAGGAGCGCUCACGCCGCAGCCCCUGUCAGAUUCUGGUGAAUCUGCGGAUUCUGCUGUAUAUCUC,0.27
17,UAACAGGGGGCCACAGCAGGAGCGUACACGUAGCAGCCCCUGUCAGAUUCUGGUGAAUCUGCGAAUUCUGCCGUAUAUCAC,0.22
18,UAACAGGGGGCCACAGCAGGAGCGUUCACGUCGCAGCCCCUGUCAGAUUCUGCCGAAUCUGCGAAUUCUGCUGUAUAUCUC,0.95
19,UAACAGGGGGCCACAGCAGGAGCGUUCACGCCGCAGCCCCUGUCAGAUUCUGGUGAAUCCGCGAAUUCUGCUGUAGAUCUC,0.08
20,UAACAGGGGGCCACAGCAGGAGCGUUCACGCCGCAGCCCCUGUCAGAUUCUGGUGAAUCUGCGAAUUCUGCAGUAUAUCUC,0.14
21,UAACAGGGGGCCACAGCAGGAGCGUUCACAUCGCAGCCCCUGUCAGAUUCUGGUGAAUCUGCAGAUUCGGCUGUAUAUCUC,0.05
22,UAACAGGGGGCCACAGCAGGAGCGCUCUCGUCGCAGCCCCUGUCAGAUUCUGGUGUAUCUGCGAAUUCUGCUGUAUAUCCC,0.31
